Consider 22 molecules from article PMC12136788.

B1: ENSG00000127022:stop:overlap|stop_codon|ENSG00000127022|stop_codon|NA|stop_codon (ssRNA)
RNA: GGGAGUUCUACAGUCCGACGAUCACACAUUUUGUUUUACCAAGCUGAAGGUACAUUUAUGUAAAGGGAAUAUUUUAAUAGGGUAGUUUACAGUGGCUUAUGGCAGUAAAAAUUCUGUUAAAGCCAAUUUUGUUGAAGUGGGAUCAACAGAGGAUUGAGCAUCA
B2: chr17:59607285:59607386:+|3pUTR|ENSG00000108406|unk|total|mutant (ssRNA)
RNA: GGGAGUUCUACAGUCCGACGAUCUAAAUCAAAGCUCAUCAGUUCCCAUAAAUGCAGUUGUCAAAGAAAAGAUUUGGUUGCCACCGUCAUAAGCAAUGAUACAUGAAACCAAUGAAAGACAGUACAUGUAAUAAUAUUUUCCUCCAACAGAGGAUUGAGCAUCA
B3: chr14:67336187:67336738:-|three_prime_utr|ENSG00000100554|control|control|control (ssRNA)
RNA: GGGAGUUCUACAGUCCGACGAUCGUCAAGUAUGAUUUGAUUUAAUUUGAUCUUUAUAUUUUAAGAAUUACGUACUGCCUUUCUAGGAGGCAAAAAUUAGUUUGAAGUAGGGAUCCAGAUUAGUGGUUUUCCACAUGUAGGUAACAACAGAGGAUUGAGCAUCA
B4: chr1:23094017:23094118:-|CDS|ENSG00000169641|unk|FALSE|unique (ssRNA)
RNA: GGGAGUUCUACAGUCCGACGAUCCUCCAGAAAGCAGAGGAUGAACUCCUGGAUCUCCAGGACAAGGUGAUUCAGGCAGAAGGUAGCAACUCCAGCAUGUUGGCGGAGAUUGAAGUGCUGCGCCAGCGGGUGCUGAGAAUUGAACAACAGAGGAUUGAGCAUCA
B5: chr1:116393555:116393656:+|CDS|ENSG00000163399|msi1|FALSE|unique (ssRNA)
RNA: GGGAGUUCUACAGUCCGACGAUCCCCCAACACAUCGGAGCCCCAACACCUGUUGGUGAUGAAGGGCGCCCCAGAAAGGAUCCUAGACCGUUGCAGCUCUAUCCUCCUCCACGGCAAGGAGCAGCCCCUGGAUGAGGAGCUGAACAACAGAGGAUUGAGCAUCA
B6: chr3:11298707:11298833:+|CDS|ENSG00000197548|unk|total|mutant (ssRNA)
RNA: GGGAGUUCUACAGUCCGACGAUCAUAAUGGCGGCAGCUACGGGGGAUCCUGGACUCUCUAAACUGCAGUUUGCCCCUUUCCGCCGUGCCUUGGAUGUUGGGUUUUGGCAUGAGUUGACCCAGAAGAAGCUGAACGAGUAUCGGCAACAGAGGAUUGAGCAUCA
B7: chr2:96373863:96373964:+|3pUTR|ENSG00000121152|unk|total|mutant (ssRNA)
RNA: GGGAGUUCUACAGUCCGACGAUCCCGAACUGGCAAAAUAUUUGAGUGUCCACCCGAUGAGUAUCAGACCCCGUCCUUACCCUCCGGGGGAUGCAGUCCUGGUUGUUAUCCAGGAUACACACCUGUCAGUAUAAGGCAGAAGAUCAACAGAGGAUUGAGCAUCA
B8: chr11:108172639:108172748:-|CDS|ENSG00000149308|unk|FALSE|unique (ssRNA)
RNA: GGGAGUUCUACAGUCCGACGAUCGUUAUCAUUAGUGAUGAUCCAUUUGUUUCCUCAGAUACUGAACUUACCAGUGCUGUUUCUAGUAUUAAUGGAGAAAACCUGCCAACUAUAAUCUUGUCUUCUCCUACUAAAUCACCUACUCAACAGAGGAUUGAGCAUCA
B9: chr1:22120052:22120517:-|CDS|ENSG00000162552|control|control|control (ssRNA)
RNA: GGGAGUUCUACAGUCCGACGAUCGUGCCACGCAACGCACAGUUCAAGCCGCACACAGAUGAGGACCUGGUGUACUUGGAGCCUAGCCCCGACUUCUGUGAGCAGGACAUGCGCAGCGGCGUGCUGGGCACGAGGGGCCGCACACAACAGAGGAUUGAGCAUCA
B10: chr14:52864448:52864598:-|CDS|ENSG00000073712|unk|FALSE|unique (ssRNA)
RNA: GGGAGUUCUACAGUCCGACGAUCGAUGGCAGCCUGCAGAUUAGCCUCCAAAGGCAAGACCAUGGCGGACAGUUCUUACAACUUAGAAGUUCAGAAUAUUCUUUCCUUUCUGAAGAUGCAGCAUUUAAACCCAGAUCCUCAGUUCAACAGAGGAUUGAGCAUCA
B11: ENSG00000107863:be:win_3351|CDS|ENSG00000107863|bound_else_gene|NA|bound_elsewhere_windowed (ssRNA)
RNA: GGGAGUUCUACAGUCCGACGAUCAAAAGACAAAGGCACAUGGAGAAAAGGCAUUCCAAGUAUCAUGAGAAAGACAUUUGAGAAAAAGCCAACUGCUACAGGAACUUUCGGCGUCCGACUAGAUGACUGCCCACCAGCUCAUACCAACAGAGGAUUGAGCAUCA
B12: chr6:145805060:145805161:-|CDS|ENSG00000118496|unk|total|mutant (ssRNA)
RNA: GGGAGUUCUACAGUCCGACGAUCAGAAGAUCCUAUGGGCCUCCAAGGAACCGAUCUGAUCACAGCAGCAUUGCUUUUUUGUCCCGGAGAUUCUCCAGGAGGGAGGGGUAUAUCUGACCGCCGCAUGGCUGAUAUUUAUCACAUCAACAGAGGAUUGAGCAUCA
B13: chr7:93926053:93926159:+|CDS|ENSG00000127920|unk|FALSE|unique (ssRNA)
RNA: GGGAGUUCUACAGUCCGACGAUCGUCUAAAUGUUCUGAAGAAAUAAAGAACUAUAUUGAAGAACGUUCUGGAGAGGAUCCUCUAGUAAAGGGAAUUCCAGAAGACAAGAACCCCUUUAAAGAAAAAGGCAGCUGUGUUAUUUCCAACAGAGGAUUGAGCAUCA
B14: chr9:35056615:35056731:-|3pUTR|ENSG00000165280|msi1|FALSE|unique (ssRNA)
RNA: GGGAGUUCUACAGUCCGACGAUCCCCUAUCCAACCUGGGUAGGUGGGUAGGGGCCACAGUUGCUGGAUGUUUAUAUAGAGAGUAGGUUGAUUUAUUUUACAUGCUUUUGAGUUAAUGUUGGAAAACUAAUCACAAGCAGUUUCCAACAGAGGAUUGAGCAUCA
B15: chr2:25742488:25742589:-|CDS|ENSG00000143970|unk|FALSE|unique (ssRNA)
RNA: GGGAGUUCUACAGUCCGACGAUCCACUUUAAGUAAGGAGAAUUACCUGUUCACUAGAGGCCAAACAUUUGAUGAAAAGACCCUAGCCAGAGAUUUAAUUCAGGCAGCACAGAAGCAGAUGGCUCAUGCAGUGAGAGGUAAGGCCAACAGAGGAUUGAGCAUCA
B16: chr3:11298707:11298833:+|CDS|ENSG00000197548|unk|FALSE|unique (ssRNA)
RNA: B6 RNA with C80U, C81A, C83U, C84A
B17: chr5:159157431:159157536:-|3pUTR|ENSG00000145860|unk|FALSE|bound_elsewhere (ssRNA)
RNA: GGGAGUUCUACAGUCCGACGAUCCAAAAAGUGUUUUUCAGACCUCGGUAUUCCUAAUGUGGGAUGUGACUUUAUUUUAUUUUUAGUAGCAAAUUUGGAUGUAGACUGACAGACAUAGCUGAAUGUCUUAAUAAAUUUAAAUUUCAACAGAGGAUUGAGCAUCA
B18: ENSG00000114354:stop:overlap|stop_codon|ENSG00000114354|stop_codon|NA|stop_codon (ssRNA)
RNA: GGGAGUUCUACAGUCCGACGAUCCAGCCGCAGGCUCCACCUCAGCAGCCUCAACAGUAUGGUAUUCAGUAUUCAGCAAGCUAUAGUCAGCAGACUGGACCUCAACAACCUCAGCAGUUCCAGGGAUAUGGCCAGCAACCAACUCAACAGAGGAUUGAGCAUCA
B19: chr16:74449243:74449344:-|3pUTR|ENSG00000090863|msi1|FALSE|bound_elsewhere (ssRNA)
RNA: GGGAGUUCUACAGUCCGACGAUCUCUCCUAUCCUCCCAUCCUCCAGGCCUGUGGUGUGACUUCUGCCCCGAAGUUCCUACUAUAGUGAGUCAUCUGGGGAGAGGCCACUGAAAAGAGGCCUUCCCUUCCCAUUUCCUCCCCUGCAACAGAGGAUUGAGCAUCA
B20: chr3:133826890:133826991:-|3pUTR|ENSG00000154917|unk|FALSE|unique (ssRNA)
RNA: GGGAGUUCUACAGUCCGACGAUCUUUGAACGUGUUUCAGAUGUCAUGUGUUUAGUUUUUAUAUGUGUGUACAUAAUUAUAUAUAGAGAUAGACUUGUGUAUACACCUUCCACAAACACAUCCUCACGGAGAUACAUGUGCUCACAACAGAGGAUUGAGCAUCA
B21: chr8:88167829:88167930:-|CDS|ENSG00000156103|msi1|FALSE|bound_elsewhere (ssRNA)
RNA: GGGAGUUCUACAGUCCGACGAUCCUUUGAUGUGUGGCAGAAUGUAACUCCUCUGACAUUUGAAGAAGUUCCCUACAGUGAAUUAGAAAAUGGCAAACGUGAUGUGGAUAUAACCAUUAUUUUUGCAUCUGGUUUCCAUGGGGACAACAGAGGAUUGAGCAUCA
B22: chr12:293013:293114:-|CDS|ENSG00000073614|unk|total|mutant (ssRNA)
RNA: GGGAGUUCUACAGUCCGACGAUCACUAAAAGUGAAAGGAAAGGACUCUUCAGAGAAGAAACGGAAACGGAAGCCCGAAAAGGCCGAGCAACUUUUUGGAGAAGGAAAACAGAAGUCCAAGGAGUUAAAGAAAAUGGACAAACCCAACAGAGGAUUGAGCAUCA

Positions count from the first letter of the chain named. The list shows a part of the results.

In the assay the target is MSI1 full-length (mouse, UniProt Q61474 1-362). Briefly: nsRBNS (natural sequence RNA bind-n-seq); RBNS binding buffer (assumed for nsRBNS): 25 mM Tris pH 7.5, 150 mM KCl, 3 mM MgCl2, 0.01% Triton X-100, 500 ug/ml BSA, 20 U/ml SUPERase-In, 4 C; UNK is unkempt and MSI1 is Musashi-1; names of the RNAs are library labels; protein concentration not given here; high values mean tight binding.
Chain of UniProt Q61474 (Q61474 whole entry): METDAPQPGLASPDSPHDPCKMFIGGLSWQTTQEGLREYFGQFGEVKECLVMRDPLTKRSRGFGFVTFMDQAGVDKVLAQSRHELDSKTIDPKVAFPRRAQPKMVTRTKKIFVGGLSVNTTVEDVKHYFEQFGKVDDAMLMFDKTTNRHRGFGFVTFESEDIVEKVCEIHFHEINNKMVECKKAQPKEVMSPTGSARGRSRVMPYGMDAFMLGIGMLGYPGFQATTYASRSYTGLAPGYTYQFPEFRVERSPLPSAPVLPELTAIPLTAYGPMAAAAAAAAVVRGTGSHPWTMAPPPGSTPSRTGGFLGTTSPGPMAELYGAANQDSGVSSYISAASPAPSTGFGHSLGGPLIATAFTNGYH
On to B1, for which the binding signal came to 0.549 enrichment R.
Turning to B2, the binding signal stood at 0.414 enrichment R.
To B3 belongs 6.4 enrichment R.
B4 returned a binding signal of 0.304 enrichment R.
B5 showed a binding signal of 0.354 enrichment R.
On to B6, for which the binding signal worked out at 0.418 enrichment R.
Molecule B7 gave a binding signal of 0.261 enrichment R.
Molecule B8 returned a binding signal of 1.03 enrichment R.
As for B9, the binding signal was 0.446 enrichment R.
As for B10, the binding signal stood at 1.06 enrichment R.
B11 yielded a binding signal of 0.372 enrichment R.
The molecule B12 registered a binding signal of 0.423 enrichment R.
Molecule B13 came in with a binding signal of 0.308 enrichment R.
Regarding B14, the binding signal stood at 2.39 enrichment R.
Take B15: the binding signal stood at 0.626 enrichment R.
B16 yielded a binding signal of 1.02 enrichment R.
B17 gave a binding signal of 23.3 enrichment R.
The molecule B18 had a binding signal of 0.745 enrichment R.
With B19 the figure was 0.52 enrichment R.
Turning to B20, the binding signal was determined as 9.35 enrichment R.
Turning to B21, the binding signal is 0.253 enrichment R.
B22 yielded a binding signal of 0.418 enrichment R.
